# Test results: the supplement of paper PMC7826260
# The list shows a part of the results. Cleavage of a single-stranded DNA pool by Rep nickase domains was read by sequencing for 1 h at 37 °C with 3 µM enzyme; only the middle of the 90-letter strands is printed. A value is the log2 ratio of uncut reads to the pool without enzyme; more negative means more cut, near 0 not cut, and no call is made. Reads are scaled to the total, so uncut sequences can rise above 0 when many others are cut.
# System: T1, Rep nickase domain of tomato golden mosaic virus
# T1 sequence (protein, residues 1-124, tag omitted): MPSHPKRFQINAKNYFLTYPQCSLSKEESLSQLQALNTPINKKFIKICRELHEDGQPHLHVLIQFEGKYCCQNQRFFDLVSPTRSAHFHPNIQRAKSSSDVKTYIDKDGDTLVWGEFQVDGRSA
# Assay: uncleaved DNA left, log2 of reads against the no-enzyme library (log2 ratio); higher = less cleavage (more negative = more Rep cleavage of the k-mer); sequences stand for … in CTCGTCCG…ACCGGAGA
# Protocol: (§1)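 A pool of 90-nt single-stranded DNAs with seven random bases just before the constant AC of the nick site (name = the seven bases) was cut by 3 µM recombinant His6-SUMO-tagged Rep nickase domain (300 nM DNA, 50 mM HEPES pH 8.0, 50 mM NaCl, 1 mM MnCl2, 1 h, 37 °C, three replicates). Uncut DNA was amplified and sequenced.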
row,Sequence,uncleaved DNA left (log2)
1,GCCGAGC,0.016
2,GGCAAGC,0.0494
3,AGGTTTT,-0.0271
4,TTGGGAC,0.124
5,CCGGCAT,0.068
6,TTAAGAT,-0.0716
7,CACTGGC,0.0251
8,ATCCGAC,-0.204
9,CTCTCCA,-0.19
10,CGTGTAC,0.051
11,TACCTAG,0.061
12,CCTACGG,0.152
13,AAACGGC,0.103
14,CCGCTGG,-0.0499
15,CCTCTGC,-0.31
16,GGGTATC,-0.0402
17,ATAACAT,0.0253
18,CTCGTTA,0.0392
19,ATACGTC,-0.0556
20,TCCTCGG,-0.0129

row,Sequence,uncleaved DNA left (log2)
1,TCACAAA,0.143
2,CGTGCAA,0.0113
3,GTAATGC,0.1
4,TCGACGC,-0.244
5,CATGGCG,-0.00312
6,TGCATAC,0.102
7,GCCCAAC,-0.102
8,GATACAG,-0.104
9,CCAGTAT,-0.0544
10,GACGCTT,0.12
11,TCTCGTG,-0.0569
12,GAAGGCG,0.0635
13,AGGCTTA,0.145
14,CCTAATG,-0.0181
15,ATGGAGG,0.109
16,TGGCTAG,0.0484
17,GGCGAAC,0.0281
18,GTTCAGT,0.0493
19,TCGGTGC,-0.189
20,CAGGAAT,0.13

# System: T2, Rep nickase domain of tomato yellow leaf curl virus
# T2 sequence (protein, residues 1-136, tag omitted): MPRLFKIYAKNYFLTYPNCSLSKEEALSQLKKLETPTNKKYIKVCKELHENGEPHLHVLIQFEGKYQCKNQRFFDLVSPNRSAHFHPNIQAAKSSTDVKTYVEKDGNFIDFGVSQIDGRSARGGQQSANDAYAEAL
# Assay: as above
# Protocol: as §1
row,Sequence,uncleaved DNA left (log2)
1,GCCGAGC,0.0471
2,GGCAAGC,-0.113
3,AGGTTTT,0.0105
4,TTGGGAC,0.081
5,CCGGCAT,0.018
6,TTAAGAT,-0.11
7,CACTGGC,0.0505
8,ATCCGAC,-0.129
9,CTCTCCA,-0.13
10,CGTGTAC,-0.0331
11,TACCTAG,0.11
12,CCTACGG,-0.117
13,AAACGGC,-0.0584
14,CCGCTGG,-0.0715
15,CCTCTGC,-0.174
16,GGGTATC,0.128
17,ATAACAT,0.0817
18,CTCGTTA,-0.101
19,ATACGTC,-0.0689
20,TCCTCGG,-0.206

row,Sequence,uncleaved DNA left (log2)
1,TCACAAA,0.114
2,CGTGCAA,0.0367
3,GTAATGC,0.142
4,TCGACGC,-0.164
5,CATGGCG,0.0833
6,TGCATAC,0.116
7,GCCCAAC,-0.0692
8,GATACAG,0.0772
9,CCAGTAT,-0.0142
10,GACGCTT,0.159
11,TCTCGTG,-0.097
12,GAAGGCG,0.0466
13,AGGCTTA,-0.0501
14,CCTAATG,-0.0239
15,ATGGAGG,-0.0698
16,TGGCTAG,0.0813
17,GGCGAAC,-0.09
18,GTTCAGT,0.172
19,TCGGTGC,-0.0279
20,CAGGAAT,-0.0457

# System: T3, Rep nickase domain of wheat dwarf virus
# T3 sequence (protein, residues 1-137, tag omitted): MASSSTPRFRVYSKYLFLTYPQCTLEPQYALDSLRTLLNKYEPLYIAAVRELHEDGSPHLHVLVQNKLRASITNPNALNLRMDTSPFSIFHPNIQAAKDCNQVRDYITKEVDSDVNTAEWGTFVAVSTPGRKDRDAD
# Assay: as above
# Protocol: as §1
row,Sequence,uncleaved DNA left (log2)
1,GCCGAGC,0.0942
2,GGCAAGC,-0.064
3,AGGTTTT,0.0147
4,TTGGGAC,0.172
5,CCGGCAT,0.0518
6,TTAAGAT,-0.225
7,CACTGGC,0.00562
8,ATCCGAC,-0.0838
9,CTCTCCA,0.0524
10,CGTGTAC,-0.0398
11,TACCTAG,0.149
12,CCTACGG,-0.0152
13,AAACGGC,0.085
14,CCGCTGG,-0.0252
15,CCTCTGC,-0.327
16,GGGTATC,0.106
17,ATAACAT,0.0533
18,CTCGTTA,-0.169
19,ATACGTC,-0.0924
20,TCCTCGG,-0.0207

row,Sequence,uncleaved DNA left (log2)
1,TCACAAA,0.103
2,CGTGCAA,-0.0876
3,GTAATGC,-0.0336
4,TCGACGC,-0.0903
5,CATGGCG,-0.129
6,TGCATAC,0.0335
7,GCCCAAC,0.0411
8,GATACAG,0.0176
9,CCAGTAT,-0.0581
10,GACGCTT,0.0402
11,TCTCGTG,-0.312
12,GAAGGCG,-0.0804
13,AGGCTTA,-0.0474
14,CCTAATG,-0.0313
15,ATGGAGG,0.0431
16,TGGCTAG,-0.0307
17,GGCGAAC,0.0585
18,GTTCAGT,0.0992
19,TCGGTGC,-0.13
20,CAGGAAT,0.219
